Experimental data taken from the supplement of paper PMC4967469.
pIC50: −log10 of the molar value. IC50 is the fitted dose that halves viability relative to control wells, and lower means more sensitive; a fit beyond the top or the lowest dose is shown as a bound at that dose. The AUC spans the tested range (256-fold, ending at the top dose) of the same fit; the more sensitive the line, the further below 1. For some of these results: A top dose marked as inferred is not printed in the source and was worked back from the curve model.

Columns and labels:
Assay in all cases: Viability of human cancer cell lines after 72 h of drug (GDSC screen)
IPA-3 = compound: Oc1ccc2ccccc2c1SSc1c(O)ccc2ccccc12 [IPA-3]; conditions: top dose 32 µM; top dose inferred
Description: (§1)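 Human cancer cell lines in 384-well plates, medium with 10% serum, drug for 72 h over a 256-fold dose range (nine 2-fold or five 4-fold steps up to the top dose). Adherent lines were fixed and stained with the nucleic acid dye Syto60, suspension lines read with resazurin; signal relative to control wells, capped at 0 and 100%. One two-parameter sigmoid per drug and line, fitted in a mixed model over all curves with the slope shared within a line.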

Tubastatin A = compound: CN1CCc2c(c3ccccc3n2Cc2ccc(C(=O)NO)cc2)C1 [Tubastatin A]; conditions: top dose 20 µM
Description: as §1

ZG-10 = compound: CN(C)C/C=C/C(=O)Nc1ccc(C(=O)Nc2cccc(Nc3nccc(-c4cccnc4)n3)c2)cc1 [ZG-10]; conditions: top dose 10 µM; top dose inferred
Description: as §1

Z-LLNle-CHO = compound: CCCC[C@@H](C=O)NC(=O)[C@H](CC(C)C)NC(=O)[C@H](CC(C)C)NC(=O)OCc1ccccc1 [Z-LLNle-CHO]; conditions: top dose 2.56 µM; top dose inferred
Description: as §1

Temozolomide = compound: Cn1nnc2c(C(N)=O)ncn2c1=O [Temozolomide]; conditions: top dose 30 µM
Description: as §1

JW-7-52-1 = compound: CCC(=O)N1CCN(c2ccc(-n3c(=O)ccc4cnc5ccc(-c6cnc7ccccc7c6)cc5c43)cc2C(F)(F)F)CC1 [JW-7-52-1]; conditions: top dose 1.2 µM; top dose inferred
Description: as §1

XL-880 = compound: COc1cc2c(Oc3ccc(NC(=O)C4(C(=O)Nc5ccc(F)cc5)CC4)cc3F)ccnc2cc1OCCCN1CCOCC1 [XL-880]; conditions: top dose 5.12 µM; top dose inferred
Description: as §1

CI-1040 = compound: O=C(NOCC1CC1)c1ccc(F)c(F)c1Nc1ccc(I)cc1Cl [CI-1040]; conditions: top dose 10 µM; top dose inferred
Description: as §1

Cell Line	AUC (IPA-3)	pIC50 (IPA-3)	AUC (Tubastatin A)	pIC50 (Tubastatin A)	AUC (ZG-10)	pIC50 (ZG-10)	AUC (Z-LLNle-CHO)	pIC50 (Z-LLNle-CHO)	AUC (Temozolomide)	pIC50 (Temozolomide)	AUC (JW-7-52-1)	pIC50 (JW-7-52-1)	AUC (XL-880)	pIC50 (XL-880)	AUC (CI-1040)	pIC50 (CI-1040)
A101D (melanoma, adherent)	0.834	4.55	0.973	< 4.70	0.689	5.62	0.615	6.45	0.938	< 4.52	0.332	7.64	0.653	6.03	0.517	6.15
PSN1 (pancreas, adherent)	0.695	5.20	0.832	5.00			0.689	6.31	0.991	< 4.52	0.241	7.81	0.439	6.65	0.592	5.97
HA7-RCC (kidney, adherent)	0.983	< 4.49	0.984	< 4.70			0.792	5.89	0.982	< 4.52	0.251	7.88	0.588	6.24	0.88	< 5.00
GB-1 (glioma, adherent)	0.617	5.35	0.934	< 4.70	0.922	< 5.00	0.721	6.11	0.952	< 4.52	0.303	7.73	0.434	6.69	0.915	< 5.00
EM-2 (chronic myeloid leukaemia, suspension)	0.978	< 4.49	0.89	< 4.70			0.778	5.93	0.966	< 4.52	0.542	7.00	0.433	6.69	0.593	5.94
TE-8 (oesophagus, adherent)	0.873	< 4.49	0.985	< 4.70	0.678	5.69	0.669	6.31	0.982	< 4.52	0.41	7.38	0.58	6.27	0.822	5.20
EoL-1-cell (haematopoietic neoplasm, suspension)	0.947	< 4.49	0.556	5.76	0.286	6.77	0.783	6.02	0.845	4.75	0.38	7.44	0.019	> 7.70	0.509	6.18
MFH-ino (soft tissue, adherent)	0.956	< 4.49	0.963	< 4.70			0.783	5.89	0.978	< 4.52	0.352	7.57	0.758	5.68	0.737	5.47
Farage (B-cell lymphoma, suspension)	0.511	5.67	0.943	< 4.70	0.842	5.28	0.745	6.16	0.99	< 4.52	0.499	7.13	0.583	6.29	0.851	5.25
EW-16 (Ewing sarcoma, adherent)	0.744	4.98	0.943	< 4.70	0.663	5.74	0.807	5.86	0.983	< 4.52	0.258	7.84	0.654	6.06	0.865	5.02
LB996-RCC (kidney, adherent)	0.983	< 4.49	0.982	< 4.70	0.699	5.60	0.818	5.75	0.961	< 4.52	0.248	7.91	0.776	5.62		
GI-1 (glioma, adherent)	0.879	4.52	0.894	< 4.70	0.693	5.68	0.946	< 5.59	0.913	< 4.52	0.348	7.54	0.458	6.61	0.96	< 5.00
H9 (lymphoid neoplasm, suspension)	0.783	4.95	0.983	< 4.70	0.655	5.81	0.777	6.07	0.986	< 4.52	0.526	7.06	0.612	6.21	0.806	5.39
RKO (large intestine, adherent)	0.658		0.895	< 4.70	0.768	5.46	0.72	6.20	0.987	< 4.52	0.248	7.82	0.671	6.03	0.832	5.24
GR-ST (lymphoblastic leukaemia, suspension)	0.736	4.95	0.799	4.92	0.537	6.09	0.893	< 5.59	0.978	< 4.52	0.394	7.44	0.583	6.25	0.781	5.29
IA-LM (large cell lung carcinoma, adherent)	0.772	4.86	0.979	< 4.70	0.775	5.35	0.796	5.87	0.976	< 4.52	0.406	7.40	0.837	5.39		
RCC10RGB (kidney, adherent)	0.78	4.51	0.967	< 4.70			0.94	< 5.59	0.962	< 4.52	0.863	< 5.92	0.797	< 5.29	0.909	< 5.00
TE-10 (oesophagus, adherent)	0.851	4.62	0.985	< 4.70	0.692	5.67	0.785	5.97	0.986	< 4.52	0.389	7.43	0.847	5.44		
